Laboratory results taken from PubChem BioAssay (NCATS).
Inconclusive results, whose numbers are uncertain, are shown with a selection of clear calls. A potency beside an inconclusive call is a rough fit, not a confirmed value. Active and inactive are the calls of the source. The call rests on the fitted dose curve; in most records, active means well fitted cell-killing curve with a large enough effect; inconclusive means small, poorly fitted or top-dose-only effect, or effect the other way; inactive means flat fitted curve, though single readings scatter.

tested on: HeLa; assay: Primary qHTS to identify gynecologic anti-cancer compounds using libraries of approved drugs and bioactive compounds (AID 1345084); details: Gynecologic cancer cell panel viability, ATPlite luminescence, 48 h; series mostly up to 57.5 µM; activity change, negative = cytotoxicity: at the top concentration; further: nearly all actives have a fitted effect of over 55% in size
Method in brief: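 Cells, 1,000 per well, were allowed to settle for 16 h at 37 C before compound addition. Five concentrations were tested for 48 h, and viability was read by ATPlite luminescence after 15 min at room temperature.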
On the % scale 0 is the no-effect control and ±100 the full control effect; potency means the concentration at half of the fitted maximal effect; tags describe the fitted curve by direction and shape.

Compound | Potency | activity change, negative = cytotoxicity
S=c1nc[nH]c2nc[nH]c12 | active: 5.62 µM | 
CN(C)C(=O)C(CCN1CCC(O)(c2ccc(Cl)cc2)CC1)(c1ccccc1)c1ccccc1 | inconclusive: 22.4 µM [cytotoxic, partial curve, poor fit] | 
CCCOc1ccc2nc(NC(=O)OC)[nH]c2c1 | active: 0.282 µM | 
CS(=O)(=O)N1CCN(Cc2cc3nc(-c4cccc5[nH]ncc45)nc(N4CCOCC4)c3s2)CC1 | active: 3.55 µM | 
CCOc1ccc(Nc2nc(-c3c(C)nc4ccccn34)cs2)cc1 | active: 0.178 µM | 
Cc1cccc2c1CC[C@H](CN1CCC(c3c(Cl)cccc3Cl)CC1)C[C@@H]2O | inconclusive: 28.2 µM [cytotoxic, single point] | 
OCCCNc1cc(-c2ccnc(Nc3cccc(Cl)c3)n2)ccn1 | active: 0.158 µM | 
CN(C)C(=O)[C@H](O)[C@H](Cc1ccccc1)NC(=O)c1cc2cc(Cl)ccc2[nH]1 |  | inactive: -2.02%
COc1cc([C@@H]2c3cc4c(cc3[C@H](O)[C@H]3COC(=O)[C@H]23)OCO4)cc(OC)c1OC | active: 0.1 µM | 
CC(C)n1nc(-c2ccc3oc(N)nc3c2)c2c(N)ncnc21 | active: 12.6 µM | 
